# Assay results reported in the supplement of paper PMC8728848.
# The list shows a part of the results.
# B1: Epa23 (Candida glabrata) (protein)
# chain: MGSSHHHHHHSSGLVPRGSHMIPNPFEGTINNFPSGCSPNHGLYNRGLTMELYNYSYIHPQSIQSYFNTSTLKKMEKGQCWDPSYLDVNYPRTGYKTHNRFAKVNGIDGILDFEFNPTRSCVPSKGQLPQNYNYPLQFTLSNFTMLLYGYFKPKVTAKHTFTIFADDLLFLNFGAGNAFDCCQQQDTIDDFGNYQAYALWGSDTQQNTLTVNLDANIYYPIRMFYNNRDFKGALNMYFTTDESNTKINDFSGYLFNIPDSSEGCPAHISYETECGNVSG
# What was measured:
# Assay in all cases: glycan array binding signal (z-score within array); higher = stronger binding
# Settings in all cases: glycan notation: IUPAC condensed, linker removed
# [1] = molecular target: Gal(b1-4)GlcNAc(b1-3)Gal(b1-4)GlcNAc(b1-3)Gal(b1-4)GlcNAc(b1-3)Gal(b1-4)GlcNAc(b1-2)Man(a1-3)[Gal(b1-4)GlcNAc(b1-3)Gal(b1-4)GlcNAc(b1-3)Gal(b1-4)GlcNAc(b1-3)Gal(b1-4)GlcNAc(b1-2)Man(a1-6)]Man(b1-4)GlcNAc(b1-4)GlcNAc
# Summary of the method: (§1)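 Negative Z-scores can be read as non-binding. The Z-score is calculated within each array and then averaged across arrays of one protein sequence at different concentrations or buffers and across linkers. Arrays, 3228 in all, were curated from the Consortium for Functional Glycomics database and kept only where the protein sequence was available.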
# [2] = molecular target: Gal(b1-4)GlcNAc(b1-3)Gal(b1-4)GlcNAc(b1-3)Gal(b1-4)GlcNAc(b1-3)Gal(b1-4)GlcNAc(b1-2)Man(a1-3)[Gal(b1-4)GlcNAc(b1-3)Gal(b1-4)GlcNAc(b1-3)Gal(b1-4)GlcNAc(b1-3)Gal(b1-4)GlcNAc(b1-2)Man(a1-6)]Man(b1-4)GlcNAc(b1-4)[Fuc(a1-6)]GlcNAc
# Summary of the method: as §1
# [3] = molecular target: Gal(b1-4)GlcNAc(b1-3)Gal(b1-4)GlcNAc(b1-3)Gal(b1-4)GlcNAc(b1-3)Gal(b1-4)GlcNAc(b1-2)[Gal(b1-4)GlcNAc(b1-3)Gal(b1-4)GlcNAc(b1-3)Gal(b1-4)GlcNAc(b1-3)Gal(b1-4)GlcNAc(b1-6)]Man(a1-6)[Gal(b1-4)GlcNAc(b1-3)Gal(b1-4)GlcNAc(b1-3)Gal(b1-4)GlcNAc(b1-3)Gal(b1-4)GlcNAc(b1-2)Man(a1-3)]Man(b1-4)GlcNAc(b1-4)[Fuc(a1-6)]GlcNAc
# Summary of the method: as §1
# [4] = molecular target: Gal(b1-4)GlcNAc(b1-3)Gal(b1-4)GlcNAc(b1-3)Gal(b1-4)GlcNAc(b1-3)Gal(b1-4)GlcNAc(b1-3)Gal(b1-4)GlcNAc(b1-2)Man(a1-3)[Gal(b1-4)GlcNAc(b1-3)Gal(b1-4)GlcNAc(b1-3)Gal(b1-4)GlcNAc(b1-3)Gal(b1-4)GlcNAc(b1-3)Gal(b1-4)GlcNAc(b1-2)Man(a1-6)]Man(b1-4)GlcNAc(b1-4)GlcNAc
# Summary of the method: as §1
# [5] = molecular target: Gal(b1-4)GlcNAc(b1-3)Gal(b1-4)GlcNAc(b1-3)Gal(b1-4)GlcNAc(b1-3)Gal(b1-4)GlcNAc(b1-3)Gal(b1-4)GlcNAc(b1-2)Man(a1-3)[Gal(b1-4)GlcNAc(b1-3)Gal(b1-4)GlcNAc(b1-3)Gal(b1-4)GlcNAc(b1-3)Gal(b1-4)GlcNAc(b1-3)Gal(b1-4)GlcNAc(b1-2)Man(a1-6)]Man(b1-4)GlcNAc(b1-4)[Fuc(a1-6)]GlcNAc
# Summary of the method: as §1
# [6] = molecular target: Gal(b1-4)GlcNAc(b1-3)Gal(b1-4)GlcNAc(b1-3)Gal(b1-4)GlcNAc(b1-3)Gal(b1-4)GlcNAc(b1-3)Gal(b1-4)GlcNAc(b1-2)[Gal(b1-4)GlcNAc(b1-3)Gal(b1-4)GlcNAc(b1-3)Gal(b1-4)GlcNAc(b1-3)Gal(b1-4)GlcNAc(b1-3)Gal(b1-4)GlcNAc(b1-6)]Man(a1-6)[Gal(b1-4)GlcNAc(b1-3)Gal(b1-4)GlcNAc(b1-3)Gal(b1-4)GlcNAc(b1-3)Gal(b1-4)GlcNAc(b1-3)Gal(b1-4)GlcNAc(b1-2)Man(a1-3)]Man(b1-4)GlcNAc(b1-4)[Fuc(a1-6)]GlcNAc
# Summary of the method: as §1
# [7] = molecular target: Gal(b1-4)GlcNAc(b1-3)Gal(b1-4)GlcNAc(b1-3)Gal(b1-4)GlcNAc(b1-3)Gal(b1-4)GlcNAc(b1-3)Gal(b1-4)GlcNAc(b1-3)Gal(b1-4)GlcNAc(b1-2)Man(a1-3)[Gal(b1-4)GlcNAc(b1-3)Gal(b1-4)GlcNAc(b1-3)Gal(b1-4)GlcNAc(b1-3)Gal(b1-4)GlcNAc(b1-3)Gal(b1-4)GlcNAc(b1-3)Gal(b1-4)GlcNAc(b1-2)Man(a1-6)]Man(b1-4)GlcNAc(b1-4)GlcNAc
# Summary of the method: as §1
# [8] = molecular target: Gal(b1-4)GlcNAc(b1-3)Gal(b1-4)GlcNAc(b1-3)GalNAc
# Summary of the method: as §1
# [9] = molecular target: Gal(b1-4)GlcNAc(b1-3)Gal(b1-4)GlcNAc(b1-3)[Gal(b1-4)GlcNAc(b1-3)Gal(b1-4)GlcNAc(b1-6)]GalNAc
# Summary of the method: as §1
# [10] = molecular target: Gal(b1-4)GlcNAc(b1-3)Gal(b1-4)GlcNAc(b1-6)[Gal(b1-3)]GalNAc
# Summary of the method: as §1
# [11] = molecular target: Gal(b1-4)GlcNAc(b1-3)Gal(b1-4)[Fuc(a1-3)]GlcNAc(b1-3)Gal(b1-4)[Fuc(a1-3)]GlcNAc
# Summary of the method: as §1
# [12] = molecular target: Gal(b1-4)GlcNAc(b1-3)GalNAc
# Summary of the method: as §1
# [13] = molecular target: Gal(b1-4)GlcNAc(b1-3)[Fuc(a1-3)GlcNAc(b1-6)]Gal(b1-4)Glc
# Summary of the method: as §1
# [14] = molecular target: Gal(b1-4)GlcNAc(b1-3)[Gal(b1-4)GlcNAc(b1-6)]Gal(b1-4)GlcNAc
# Summary of the method: as §1
# [15] = molecular target: Gal(b1-4)GlcNAc(b1-3)[GlcNAc(b1-6)]Gal(b1-4)GlcNAc
# Summary of the method: as §1
# [16] = molecular target: Gal(b1-4)GlcNAc(b1-6)Gal(b1-4)GlcNAc
# Summary of the method: as §1
# [17] = molecular target: Gal(b1-4)GlcNAc(b1-6)GalNAc
# Summary of the method: as §1
# [18] = molecular target: Gal(b1-4)GlcNAc(b1-6)[Gal(b1-3)]GalNAc
# Summary of the method: as §1
# [19] = molecular target: Gal(b1-4)GlcNAc(b1-6)[Gal(b1-4)GlcNAc(b1-3)]GalNAc
# Summary of the method: as §1
# Gal(b1-4)GlcNAc6P = molecular target: Gal(b1-4)GlcNAc6P
# Summary of the method: as §1
# Gal(b1-6)Gal = molecular target: Gal(b1-6)Gal
# Summary of the method: as §1
# Gal3S(b1-3)GalNAc = molecular target: Gal3S(b1-3)GalNAc
# Summary of the method: as §1
# Gal3S(b1-3)GlcNAc = molecular target: Gal3S(b1-3)GlcNAc
# Summary of the method: as §1
# [20] = molecular target: Gal3S(b1-3)[Fuc(a1-4)]GlcNAc
# Summary of the method: as §1
# Gal3S(b1-4)Glc = molecular target: Gal3S(b1-4)Glc
# Summary of the method: as §1
# Gal3S(b1-4)Glc6S = molecular target: Gal3S(b1-4)Glc6S
# Summary of the method: as §1
# Gal3S(b1-4)GlcNAc = molecular target: Gal3S(b1-4)GlcNAc
# Summary of the method: as §1
# [21] = molecular target: Gal3S(b1-4)[Fuc(a1-3)]Glc6S
# Summary of the method: as §1
# [22] = molecular target: Gal3S(b1-4)[Fuc(a1-3)]GlcNAc
# Summary of the method: as §1
# [23] = molecular target: Gal3S(b1-4)[Fuc(a1-3)]GlcNAc6S
# Summary of the method: as §1
# Gal3S4S(b1-4)GlcNAc = molecular target: Gal3S4S(b1-4)GlcNAc
# Summary of the method: as §1
# Gal3S6S(b1-4)GlcNAc = molecular target: Gal3S6S(b1-4)GlcNAc
# Summary of the method: as §1
# Gal3S6S(b1-4)GlcNAc6S = molecular target: Gal3S6S(b1-4)GlcNAc6S
# Summary of the method: as §1
# Gal4S(b1-4)GlcNAc = molecular target: Gal4S(b1-4)GlcNAc
# Summary of the method: as §1
# Gal4S6S(b1-4)GlcNAc = molecular target: Gal4S6S(b1-4)GlcNAc
# Summary of the method: as §1
# Gal6P(b1-4)GlcNAc = molecular target: Gal6P(b1-4)GlcNAc
# Summary of the method: as §1
# Gal6S(b1-3)GlcNAc = molecular target: Gal6S(b1-3)GlcNAc
# Summary of the method: as §1
# Gal6S(b1-3)GlcNAc6S = molecular target: Gal6S(b1-3)GlcNAc6S
# Summary of the method: as §1
binder,measurement,setting,value
B1,glycan array binding signal (z-score),[1],2.62
same,glycan array binding signal (z-score),[2],2.19
same,glycan array binding signal (z-score),[3],3.79
same,glycan array binding signal (z-score),[4],3.01
same,glycan array binding signal (z-score),[5],2.83
same,glycan array binding signal (z-score),[6],4.71
same,glycan array binding signal (z-score),[7],1.82
same,glycan array binding signal (z-score),[8],0.173
same,glycan array binding signal (z-score),[9],0.183
same,glycan array binding signal (z-score),[10],0.162
same,glycan array binding signal (z-score),[11],0.209
same,glycan array binding signal (z-score),[12],-0.012
same,glycan array binding signal (z-score),[13],-0.036
same,glycan array binding signal (z-score),[14],0.015
same,glycan array binding signal (z-score),[15],0.611
same,glycan array binding signal (z-score),[16],1.43
same,glycan array binding signal (z-score),[17],0.008
same,glycan array binding signal (z-score),[18],0.364
same,glycan array binding signal (z-score),[19],0.276
same,glycan array binding signal (z-score),Gal(b1-4)GlcNAc6P,-0.217
same,glycan array binding signal (z-score),Gal(b1-6)Gal,-0.041
same,glycan array binding signal (z-score),Gal3S(b1-3)GalNAc,-0.15
same,glycan array binding signal (z-score),Gal3S(b1-3)GlcNAc,-0.217
same,glycan array binding signal (z-score),[20],-0.217
same,glycan array binding signal (z-score),Gal3S(b1-4)Glc,-0.021
same,glycan array binding signal (z-score),Gal3S(b1-4)Glc6S,-0.201
same,glycan array binding signal (z-score),Gal3S(b1-4)GlcNAc,-0.221
same,glycan array binding signal (z-score),[21],-0.103
same,glycan array binding signal (z-score),[22],-0.19
same,glycan array binding signal (z-score),[23],-0.097
same,glycan array binding signal (z-score),Gal3S4S(b1-4)GlcNAc,-0.241
same,glycan array binding signal (z-score),Gal3S6S(b1-4)GlcNAc,-0.168
same,glycan array binding signal (z-score),Gal3S6S(b1-4)GlcNAc6S,0.186
same,glycan array binding signal (z-score),Gal4S(b1-4)GlcNAc,-0.197
same,glycan array binding signal (z-score),Gal4S6S(b1-4)GlcNAc,-0.239
same,glycan array binding signal (z-score),Gal6P(b1-4)GlcNAc,0.494
same,glycan array binding signal (z-score),Gal6S(b1-3)GlcNAc,0.393
same,glycan array binding signal (z-score),Gal6S(b1-3)GlcNAc6S,2.1
